The campaign covered roughly 370,000 compounds. About 1,100 (0.3%) were called active. The inconclusive results got no clear call from the source; some entries with a clear call stand among them for comparison. Calls follow the shape of the dose curve; as a rule, active = well fitted activation curve with a large enough effect; inconclusive = small, poorly fitted or top-dose-only effect; inactive = flat fitted curve, though single readings scatter. Where the call is inconclusive, the potency comes from a doubtful curve fit.
target: Relaxin receptor 1 (Homo sapiens) (UniProt Q9HBX9); assay: qHTS Assay for Agonists of the Relaxin Receptor RXFP1; conditions: HEK293T-RXFP1 cAMP TR-FRET, 30 min; series mostly up to 57.5 µM; activation: at the top concentration; also: nearly all actives have a fitted effect of over 60% in size
Outline: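 HEK293 cells stably expressing RXFP1, treated 30 min at 37C with compounds plus PDE4 inhibitor Ro 20174; cAMP measured by HTRF TR-FRET. Normalized to buffer and 29 nM porcine relaxin; EC50 by Hill fit.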
% is scaled to controls: 0 for no effect and ±100 for the full control effect; potency is read from the fitted curve at half-maximal effect; tags tell the direction and shape of the fitted curve.

Sequence of UniProt Q9HBX9 (Q9HBX9 whole entry, looked up): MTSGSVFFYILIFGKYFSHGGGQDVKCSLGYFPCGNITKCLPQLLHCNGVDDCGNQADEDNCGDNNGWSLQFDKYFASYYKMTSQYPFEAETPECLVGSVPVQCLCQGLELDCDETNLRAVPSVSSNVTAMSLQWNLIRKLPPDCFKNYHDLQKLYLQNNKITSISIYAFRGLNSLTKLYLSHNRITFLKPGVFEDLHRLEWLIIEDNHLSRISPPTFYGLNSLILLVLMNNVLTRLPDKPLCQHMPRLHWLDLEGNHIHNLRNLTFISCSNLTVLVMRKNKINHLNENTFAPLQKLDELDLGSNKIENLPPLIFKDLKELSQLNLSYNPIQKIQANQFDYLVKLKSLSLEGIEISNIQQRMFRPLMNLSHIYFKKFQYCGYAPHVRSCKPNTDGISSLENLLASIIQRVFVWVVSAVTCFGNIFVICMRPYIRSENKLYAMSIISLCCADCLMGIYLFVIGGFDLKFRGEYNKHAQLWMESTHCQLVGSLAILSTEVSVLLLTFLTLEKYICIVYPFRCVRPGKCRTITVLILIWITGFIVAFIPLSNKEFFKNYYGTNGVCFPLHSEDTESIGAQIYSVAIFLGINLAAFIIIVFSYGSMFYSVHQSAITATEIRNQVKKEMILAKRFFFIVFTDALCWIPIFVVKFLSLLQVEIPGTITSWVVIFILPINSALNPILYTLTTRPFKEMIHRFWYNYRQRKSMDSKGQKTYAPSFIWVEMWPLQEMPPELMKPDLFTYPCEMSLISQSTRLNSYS

**Q.** For `Cc1ccccc1NC(=O)Cn1c(=O)n(CCCCCC(=O)NCc2ccccc2Cl)c(=O)c2sccc21`, which Potency is on record?
**A.** The Potency was inconclusive: 28.2 µM [activator, single point].

**Q.** With `CCC(Sc1nc2cc3c(cc2c(=O)n1CCCCCC(=O)NCc1ccc2c(c1)OCO2)OCO3)C(=O)NCCCOC` (configuration not stated) as the molecule, how does the “activation” value read?
**A.** Its value is inactive: 0.416%.

**Q.** Which Potency does the source give for `Cc1nn2c(=O)cc(COC(=O)c3ccc(NC(=O)CCc4ccccc4)cc3)nc2s1` here?
**A.** The Potency was inconclusive: 31.6 µM [activator, single point].

**Q.** `COc1cc(/C=C2\C(=O)N(c3ccc(NC(C)=O)cc3)N=C2c2ccccc2)ccc1O` was tested. Which “activation” value did it give?
**A.** The value was inactive: -0.585%.

**Q.** Which Potency does the source give for `Cc1cccn2c(=O)c3cc(C(=O)NCC4CCCO4)c(=N)n(Cc4ccc(F)cc4)c3nc12` (configuration not stated) here?
**A.** Its Potency is inconclusive: 25.1 µM [activator, single point].

**Q.** With `CCOc1ccc(NC(=O)Cn2cc(C(=O)c3ccc(F)cc3)c(=O)c3cc4c(cc32)OCO4)cc1` as the molecule, how does the Potency read?
**A.** Its Potency is inconclusive: 39.8 µM [activator, single point].

**Q.** For `CCOc1ccc2nc3c(cc2c1)CN(CCOC)C(=NCCOC)S3`, which Potency is on record?
**A.** The Potency was inconclusive: 35.5 µM [activator, single point].

**Q.** `COc1ccc(Cn2c(SCc3ccc(C(=O)NC4CCCCC4)cc3)nc3cccnc32)cc1` was tested. Which Potency did it give?
**A.** The Potency was inconclusive: 39.8 µM [activator, single point].

**Q.** `CC(=O)Nc1ccc2nc(SCCOc3ccc(C)cc3)sc2c1` was tested. Which Potency did it give?
**A.** The Potency was inconclusive: 31.6 µM [activator, single point].

**Q.** For `COC(=O)c1ccc(NC(=O)CC2C(=O)N(c3cccc(F)c3)C(=O)N2CC(C)C)cc1` (configuration not stated), which “activation” value is on record?
**A.** Its value is inactive: -0.132%.

**Q.** For `Cc1ccc(CNC(=O)c2cc3cc(C)ccc3n2C)cc1`, which Potency is on record?
**A.** Its Potency is inconclusive: 28.2 µM [activator, single point].

**Q.** For `CCc1nc(N2CCN(S(C)(=O)=O)CC2)c2c3c(sc2n1)CCCC3`, which “activation” value is on record?
**A.** The value was inactive: 0.22%.

**Q.** Which Potency does the source give for `COC(=O)c1ccc(Nc2nc(C)cc(C)n2)cc1` here?
**A.** The Potency was inconclusive: 39.8 µM [activator, single point].

**Q.** With `COc1ccc(CN2CCC(CO)(CCOc3ccccc3)CC2)c(OC)c1C` as the molecule, how does the “activation” value read?
**A.** The value was inactive: -0.709%.

**Q.** Which “activation” value does the source give for `Clc1ccc2nc(N3CCCCC3)[nH]c2c1` here?
**A.** The value was inactive: -0.264%.

**Q.** How did the Potency turn out when `Cc1ccc(C)c(NC(=O)Cn2nc(C)c3ccccc3c2=O)c1` was run?
**A.** Its Potency is inconclusive: 39.8 µM [activator, single point].

**Q.** For `O=c1c2cn[nH]c2nc(SCc2cc(=O)n3cc(Br)ccc3n2)n1-c1ccc(Br)cc1`, which Potency is on record?
**A.** Its Potency is inconclusive: 20 µM [activator, partial curve].

**Q.** `Cc1ccc(N(Cc2cc3ccc(C)cc3[nH]c2=O)S(=O)(=O)c2ccccc2)c(C)c1` was tested. Which Potency did it give?
**A.** Its Potency is inconclusive: 39.8 µM [activator, single point].

**Q.** How did the Potency turn out when `COc1ccc(Cl)cc1C(=O)Nc1ccc2oc(-c3ccc(C(C)(C)C)cc3)nc2c1` was run?
**A.** Its Potency is inconclusive: 39.8 µM [activator, single point].

**Q.** With `CCOc1ccc(-n2c([S-])c(C(=O)Nc3ccc(S(=O)(=O)N4CCOCC4)cc3)[n+]3cc(C(N)=O)ccc23)cc1` as the molecule, how does the Potency read?
**A.** Its Potency is active: 31.6 µM.

**Q.** How did the Potency turn out when `CCCOc1cccc(C2/C(=C(/O)c3ccc4c(c3)CC(C)O4)C(=O)C(=O)N2CCN2CCOCC2)c1` (configuration not stated) was run?
**A.** The Potency was active: 25.1 µM.

**Q.** `COc1ccc(OC)c(CNC(=O)c2ccccc2NC(=O)c2nsc3ccccc23)c1` was tested. Which Potency did it give?
**A.** Its Potency is inconclusive: 39.8 µM [activator, single point].

**Q.** `CCc1nnc(SCc2cccc(F)c2)c2cc3sc(C)cc3n12` was tested. Which Potency did it give?
**A.** The Potency was inconclusive: 15.8 µM [activator, partial curve].

**Q.** For `O=C1c2ccccc2C(O)(c2ccccc2)N1c1ccncc1` (configuration not stated), which Potency is on record?
**A.** The Potency was inconclusive: 14.1 µM [activator, partial curve].

**Q.** How did the Potency turn out when `CC(C)CN(CCCNC(=O)c1cc(-c2ccc(Br)s2)nc2ccccc12)CC(C)C` was run?
**A.** Its Potency is inconclusive: 3.55 µM [activator, full curve].

**Q.** How did the Potency turn out when `CCCCOc1ccc(C2/C(=C(\O)c3ccc4c(c3)OCCO4)C(=O)C(=O)N2CCCN2CCOCC2)cc1` (configuration not stated) was run?
**A.** Its Potency is inconclusive: 22.4 µM [activator, partial curve].

**Q.** `O=C1COc2ccc(C(=O)COC(=O)CCSc3ccccc3)cc2N1` was tested. Which Potency did it give?
**A.** Its Potency is inconclusive: 39.8 µM [activator, single point].

**Q.** With `CCOC(=O)c1cnc2c(OC)cccc2c1N1CCN(c2ccccc2OC)CC1` as the molecule, how does the “activation” value read?
**A.** Its value is inactive: 1.46%.

**Q.** How did the Potency turn out when `CCn1c(SCCN2CCOCC2)nc2c1c(=O)n(C)c(=O)n2C` was run?
**A.** The Potency was inconclusive: 22.4 µM [activator, partial curve].

**Q.** With `Cc1cc(=O)n2nc(N3CCCC3C(=O)Nc3ccccc3C)sc2n1` (configuration not stated) as the molecule, how does the Potency read?
**A.** Its Potency is inconclusive: 28.2 µM [activator, partial curve].

**Q.** Which “activation” value does the source give for `C=CCOc1ccc(C2C(C(=O)c3ccco3)=C(O)C(=O)N2Cc2cccnc2)cc1` (configuration not stated) here?
**A.** Its value is inactive: 12.4%.

**Q.** Which Potency does the source give for `COc1ccc2c(Sc3ccccc3)c(C(=O)NCC(C)c3ccccc3)[nH]c2c1` (configuration not stated) here?
**A.** Its Potency is inconclusive: 39.8 µM [activator, single point].

**Q.** `Cc1nc(Nc2ccc(Cl)c(Cl)c2)sc1C(=O)Nc1ccccc1` was tested. Which “activation” value did it give?
**A.** The value was inactive: 5.12%.

**Q.** How did the Potency turn out when `COc1cc(CNCc2ccccc2Cl)ccc1OCC(=O)NC1CCCCC1` was run?
**A.** The Potency was inconclusive: 35.5 µM [activator, single point].

**Q.** With `CCOc1ccc(-c2nnc(SCC(=O)Nc3cc(F)ccc3F)o2)cc1` as the molecule, how does the Potency read?
**A.** The Potency was inconclusive: 35.5 µM [activator, single point].

**Q.** With `O=C1CCCN1CCCNc1ccc2nnc(CCC(=O)N3CCN(c4ccccc4)CC3)n2n1` as the molecule, how does the Potency read?
**A.** Its Potency is inconclusive: 15.8 µM [activator, partial curve].

**Q.** How did the “activation” value turn out when `COc1cc(OC)c(OC)cc1CCC(C)NCCC(c1ccccc1)c1ccccc1` (configuration not stated) was run?
**A.** The value was inactive: 0%.

**Q.** With `NC(=O)CC(NC(=O)Cc1cccc2ccccc12)c1ccc(N2CCCCCCC2)c([N+](=O)[O-])c1` (configuration not stated) as the molecule, how does the “activation” value read?
**A.** Its value is inactive: -0.74%.

**Q.** Which Potency does the source give for `COc1ccc(-c2nnn3c2nc(NCc2ccc(C)cc2)c2ccccc23)cc1` here?
**A.** Its Potency is inconclusive: 3.16 µM [activator, full curve].

**Q.** Which Potency does the source give for `Cc1cc(C)c(NC(=O)C(C)n2c(=O)cc(-c3ccccc3)c3c(C)nn(C)c32)c(C)c1` (configuration not stated) here?
**A.** The Potency was inconclusive: 35.5 µM [activator, single point].

**Q.** `Cc1ccc(C)c(N2CCN(S(=O)(=O)c3ccc(-c4cnc(C5CC5)o4)cc3)CC2)c1` was tested. Which “activation” value did it give?
**A.** The value was inactive: 2.04%.

**Q.** For `COC(=O)CSc1nc(C(C)C)nc2ccccc12`, which Potency is on record?
**A.** The Potency was inconclusive: 25.1 µM [activator, partial curve].

Source: PubChem BioAssay AID2676 (National Center for Advancing Translational Sciences (NCATS), 2010)
